Source: the supplement of paper PMC3334620
Over roughly 33,000 sequences, “E-score (-0.5 to 0.5)” has its median near -0.011; the highest 2% begin near 0.28. Some of the results follow.

These sequences were tested against T1, Gcr1 (UniProt P07261) (assay: PBM E-score (8-mer binding enrichment) (E-score (-0.5 to 0.5)); higher = stronger / more preferred TF binding; most listed sequences are background and not binding sites). Conditions: protein concentration: 100 nM; construct: GST-full length.
T1 sequence: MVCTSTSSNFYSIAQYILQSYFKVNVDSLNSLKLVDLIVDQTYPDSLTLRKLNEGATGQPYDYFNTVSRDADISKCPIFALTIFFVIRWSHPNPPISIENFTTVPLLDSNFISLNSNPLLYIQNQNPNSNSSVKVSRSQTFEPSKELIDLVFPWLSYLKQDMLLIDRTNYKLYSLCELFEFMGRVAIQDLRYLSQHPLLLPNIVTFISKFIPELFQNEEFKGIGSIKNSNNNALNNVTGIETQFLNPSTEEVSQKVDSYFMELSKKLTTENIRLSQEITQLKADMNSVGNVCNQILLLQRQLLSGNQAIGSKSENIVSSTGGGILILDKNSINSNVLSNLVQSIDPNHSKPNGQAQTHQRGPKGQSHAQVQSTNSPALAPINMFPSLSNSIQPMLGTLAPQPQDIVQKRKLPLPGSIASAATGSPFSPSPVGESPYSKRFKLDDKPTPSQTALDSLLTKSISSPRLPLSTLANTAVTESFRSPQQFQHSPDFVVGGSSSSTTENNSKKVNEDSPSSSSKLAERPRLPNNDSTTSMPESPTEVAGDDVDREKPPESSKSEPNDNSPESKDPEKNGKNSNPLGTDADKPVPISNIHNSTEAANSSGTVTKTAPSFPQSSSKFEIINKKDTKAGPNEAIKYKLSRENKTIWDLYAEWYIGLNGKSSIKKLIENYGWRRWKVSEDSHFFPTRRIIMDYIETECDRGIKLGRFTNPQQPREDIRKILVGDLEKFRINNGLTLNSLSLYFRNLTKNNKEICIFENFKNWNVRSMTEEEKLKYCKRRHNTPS
Procedure, shortened: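 PURExpress in vitro transcription/translation supplied GST-tagged yeast transcription factors, either full-length or DNA-binding domain. Applied at about 100-200 nM to universal all-10-mer Agilent arrays double-stranded by primer extension, the bound protein was detected with fluorescent anti-GST. E-scores, modified Wilcoxon-Mann-Whitney statistics, were given by the Universal PBM Analysis Suite to ungapped eight-base words pooled with their reverse complements after masliner normalisation.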

Sequence | PBM E-score
AACAACAA | -0.107
ACTCACTG | -0.0221
AAGTGTAA | -0.0607
CAACGGCC | 0.0391
CACCCGTC | -0.0956
CAAGTGGG | 0.0622
CGTGTGCA | -0.217
AAACGCGC | 0.17
CTGCATGC | -0.0512
AGGGTCTC | -0.108
CTCCGCGC | -0.127
GTTGCAAA | 0.0701
AATTAATC | 0.087
AATAGCCA | -0.116
GACACTAA | 0.104
AAGATCAA | 0.167
GATCTCAC | -0.257
CCGACTAA | -0.0699
ATCTATGC | -0.0275
TCTCGTCA | 0.0741
AACAGCCC | -0.199
ATCGTACG | -0.0863
AAACGCAC | 0.116
GAGAACTC | -0.213
CGCGATAG | -0.0829

Sequence | PBM E-score
AGTGCCTC | -0.258
AGAGAGTA | -0.412
TCTGGAAA | 0.231
GCTTATAC | -0.0642
CCCCTCGA | -0.12
CAATGGGC | 0.0816
CCCAGGTA | -0.0866
ATGAGCGG | 0.0272
GGCTTAAC | -0.122
ACGATTCG | 0.0296
CGTGGAGA | 0.0235
GTTGGTAA | 0.146
ACGTCCAA | 0.00712
CGCTGCTA | 0.155
TCCACCGA | 0.0721
AAGGGATG | -0.0743
GAGGCAAC | -0.0261
CGAGGACG | -0.236
GTACCAAA | 0.0559
GGGTTGTA | -0.0845
GATTCGAC | -0.115
ATGGATCC | 0.278
TCGGAAGA | -0.0643
ATGGGGTA | -0.128
ATTTACCG | 0.0338

Sequence | PBM E-score
GTCCGGTA | 0.112
CGTATTTC | 0.00508
GGCTCTTA | 0.0578
AACCTCAA | -0.0473
CATATGCG | -0.145
TCTACTAA | 0.242
CAATACCA | 0.0114
GGTAGAGA | -0.0114
AAATCGCG | 0.081
TCCATCGA | -0.286
TGCGCGAA | 0.14
ACGATCAA | -0.129
GCTGACCC | -0.26
GAGATCGA | -0.176
CAACTGGC | 0.0226
CCTCCACC | -0.103
ACTTTACT | 0.0341
ACGGAGCA | 0.0458
GTCGTGCA | -0.243
AAAGACTG | -0.0957
AAGCCTTA | -0.0336
AGTGGTTA | 0.00449
AGGGTAGG | -0.174
CCATACGC | 0.108
ACTTGGTA | -0.0608

Sequence | PBM E-score
ATACAGTG | 0.242
GGGGTACC | 0.0626
CTGGGGAC | -0.133
AGTTATTC | 0.0537
GGGCTTAA | -0.0342
TAGTAGAA | 0.262
ATTGTAGA | 0.15
GCGGCGAA | -0.0635
ACTACGAG | -0.171
CCGCTGAA | 0.0435
CCTGCTCA | -0.0926
AAGTAACA | -0.0228
AAAAAGGT | 0.0465
GCCTTGAC | -0.0688
GCCCAGAA | 0.0213
CCTTAGCG | -0.0185
CCAGCGGC | 0.0546
CTAGTAGC | 0.188
ACTCATAC | -0.0499
CTTAGACA | -0.142
ATTGAAGC | -0.164
TATTTGAA | 0.184
CCAACACA | 0.11
AATCGCAT | -0.13
AAGGTCTA | -0.0405

Sequence | PBM E-score
TACTAATA | 0.25
GGCATGAC | -0.261
ATAACTAT | 0.0438
CTCATCTC | -0.144
GCGCGCAC | 0.0775
CGGTGACG | -0.0907
AGTGAGTA | -0.199
ACGCCGCC | 0.228
GTCGAGTA | -0.0481
AACGCGAA | 0.00964
GTTAGACA | -0.135
CGTGTGTA | -0.127
AATGCGTG | 0.155
AATCCGGA | 0.13
CGCCTCAA | -0.0131
CACTTTTA | 0.215
ATTCTGAC | -0.00979
CCAGAATC | 0.245
GCTCTAAC | -0.0233
CACTGAGG | 0.0647
GATAATCA | 0.164
TGTAGTAA | -0.0583
AATTGAAA | 0.112
CATCATTC | -0.0201
ATGTGAAG | 0.00624

Sequence | PBM E-score
AGGTAAGC | -0.163
TCAACCCA | -0.00065
ATGAGTGA | -0.0294
GCAGCCAA | 0.395
CATGGGGC | 0.0987
CAGAAGTA | 0.0684
CTCGGCTC | -0.158
ATCTGCAT | 0.0153
ACTGTTAT | -0.0428
AAGTAACT | -0.12
TCAAAAAA | 0.233
AGTGATAG | -0.0549
TGCACGAA | -0.0334
ACAAACGA | 0.0544
CCAGCCGG | -0.0426
TCAGTGGA | 0.113
AAGGCGAT | -0.0194
CTGGGCGA | -0.25
ATCGCGAA | 0.179
CGAGAAGA | -0.00837
CGAAATCA | 0.0222
GCCTCACA | -0.0736
CGAGTTGC | -0.0564
ATCGACCG | -0.172
GCGAAAAC | -0.00962

Sequence | PBM E-score
CATGGATA | -0.163
AACACTTA | -0.062
ATAACAGG | 0.0809
CGTTAACA | -0.0497
CGGGAGTC | 0.151
AATAACGT | 0.00611
AAGAGCAC | -0.162
CCACGCGA | -0.133
GAGCCATA | -0.0931
AAACCATA | -0.102
GATAGTGA | 0.0305
CCAAGGGG | -0.116
CTCGCTAC | -0.12
GAGCTAGC | -0.122
AAGATGAG | -0.0648
AGAAGCGA | 0.0254
CAATCAGA | 0.0413
CACACTGG | 0.0866
ACAGTCAG | -0.119
ACAATTAA | 0.0269
CACCAACC | 0.0464
CGTGTCGC | -0.21
